System: oligomeric Aβ1-42 (biotin-oAβ1-42 bait)
Settings: enrichment relative to biotin-only saturated negative control matrix; human frontal lobe digitonin extract; TMT, three biological replicates; pH 8.0, 4°C overnight

Row | Molecule | Experiment I B-oAβ1-42/B Ratio
1 | Dihydropyrimidinase-related protein 5: human brain protein (protein, UniProt Q9BPU6 1-564, looked up) Dihydropyrimidinase-related …: MLANSASVRILIKGGKVVNDDCTHEADVYIENGIIQQVGRELMIPGGAKVIDATGKLVIPGGIDTSTHFHQTFMNATCVDDFYHGTKAALVGGTTMIIGHVLPDKETSLVDAYEKCRGLADPKVCCDYALHVGITWWAPKVKAEMETLVREKGVNSFQMFMTYKDLYMLRDSELYQVLHACKDIGAIARVHAENGELVAEGAKEALDLGITGPEGIEISRPEELEAEATHRVITIANRTHCPIYLVNVSSISAGDVIAAAKMQGKVVLAETTTAHATLTGLHYYHQDWSHAAAYVTVPPLRLDTNTSTYLMSLLANDTLNIVASDHRPFTTKQKAMGKEDFTKIPHGVSGVQDRMSVIWERGVVGGKMDENRFVAVTSSNAAKLLNLYPRKGRIIPGADADVVVWDPEATKTISASTQVQGGDFNLYENMRCHGVPLVTISRGRVVYENGVFMCAEGTGKFCPLRSFPDTVYKKLVQREKTLKVRGVDRTPYLGDVAVVVHPGKKEMGTPLADTPTRPVTRHGGMRDLHESSFSLSGSQIDDHVPKRASARILAPPGGRSSGIW | 7.05
2 | Peroxiredoxin-6: human brain protein (protein, UniProt P30041 2-224, looked up) Peroxiredoxin-6: PGGLLLGDVAPNFEANTTVGRIRFHDFLGDSWGILFSHPRDFTPVCTTELGRAAKLAPEFAKRNVKLIALSIDSVEDHLAWSKDINAYNCEEPTEKLPFPIIDDRNRELAILLGMLDPAEKDEKGMPVTARVVFVFGPDKKLKLSILYPATTGRNFDEILRVVISLQLTAEKRVATPVDWKDGDSVMVLPTIPEEEAKKLFPKGVFTKELPSGKKYLRYTPQP | 6.69
3 | NAD-dependent deacetylase sirtuin-2: human brain protein (protein, UniProt Q8IXJ6 2-389, looked up) NAD-dependent protein …: AEPDPSHPLETQAGKVQEAQDSDSDSEGGAAGGEADMDFLRNLFSQTLSLGSQKERLLDELTLEGVARYMQSERCRRVICLVGAGISTSAGIPDFRSPSTGLYDNLEKYHLPYPEAIFEISYFKKHPEPFFALAKELYPGQFKPTICHYFMRLLKDKGLLLRCYTQNIDTLERIAGLEQEDLVEAHGTFYTSHCVSASCRHEYPLSWMKEKIFSEVTPKCEDCQSLVKPDIVFFGESLPARFFSCMQSDFLKVDLLLVMGTSLQVQPFASLISKAPLSTPRLLINKEKAGQSDPFLGMIMGLGGGMDFDSKKAYRDVAWLGECDQGCLALAELLGWKKELEDLVRREHASIDAQSGAGVPNPSTSASPKKSPPPAKDEARTTEREKPQ | 6.68
4 | Phosphoglycerate kinase 1: human brain protein (protein, UniProt P00558 2-417, looked up) Phosphoglycerate kinase 1: SLSNKLTLDKLDVKGKRVVMRVDFNVPMKNNQITNNQRIKAAVPSIKFCLDNGAKSVVLMSHLGRPDGVPMPDKYSLEPVAVELKSLLGKDVLFLKDCVGPEVEKACANPAAGSVILLENLRFHVEEEGKGKDASGNKVKAEPAKIEAFRASLSKLGDVYVNDAFGTAHRAHSSMVGVNLPQKAGGFLMKKELNYFAKALESPERPFLAILGGAKVADKIQLINNMLDKVNEMIIGGGMAFTFLKVLNNMEIGTSLFDEEGAKIVKDLMSKAEKNGVKITLPVDFVTADKFDENAKTGQATVASGIPAGWMGLDCGPESSKKYAEAVTRAKQIVWNGPVGVFEWEAFARGTKALMDEVVKATSRGCITIIGGGDTATCCAKWNTEDKVSHVSTGGGASLELLEGKVLPGVDALSNI | 6.61
5 | Medium-chain specific acyl-CoA dehydrogenase: human brain protein (protein, UniProt P11310 26-421, looked up) Medium-chain specific …: KANRQREPGLGFSFEFTEQQKEFQATARKFAREEIIPVAAEYDKTGEYPVPLIRRAWELGLMNTHIPENCGGLGLGTFDACLISEELAYGCTGVQTAIEGNSLGQMPIIIAGNDQQKKKYLGRMTEEPLMCAYCVTEPGAGSDVAGIKTKAEKKGDEYIINGQKMWITNGGKANWYFLLARSDPDPKAPANKAFTGFIVEADTPGIQIGRKELNMGQRCSDTRGIVFEDVKVPKENVLIGDGAGFKVAMGAFDKTRPVVAAGAVGLAQRALDEATKYALERKTFGKLLVEHQAISFMLAEMAMKVELARMSYQRAAWEVDSGRRNTYYASIAKAFAGDIANQLATDAVQILGGNGFNTEYPVEKLMRDAKIYQIYEGTSQIQRLIVAREHIDKYKN | 6.39
6 | Peroxiredoxin-2: human brain protein (protein, UniProt P32119 2-198, looked up) Peroxiredoxin-2: ASGNARIGKPAPDFKATAVVDGAFKEVKLSDYKGKYVVLFFYPLDFTFVCPTEIIAFSNRAEDFRKLGCEVLGVSVDSQFTHLAWINTPRKEGGLGPLNIPLLADVTRRLSEDYGVLKTDEGIAYRGLFIIDGKGVLRQITVNDLPVGRSVDEALRLVQAFQYTDEHGEVCPAGWKPGSDTIKPNVDDSKEYFSKHN | 6.00
7 | GSTT2 protein: human brain protein (protein, UniProt P0CG29 2-244, looked up) Glutathione S-transferase …: GLELFLDLVSQPSRAVYIFAKKNGIPLELRTVDLVKGQHKSKEFLQINSLGKLPTLKDGDFILTESSAILIYLSCKYQTPDHWYPSDLQARARVHEYLGWHADCIRGTFGIPLWVQVLGPLIGVQVPKEKVERNRTAMDQALQWLEDKFLGDRPFLAGQQVTLADLMALEELMQPVALGYELFEGRPRLAAWRGRVEAFLGAELCQEAHSIILSILEQAAKKTLPTPSPEAYQAMLLRIARIP | 6.00
8 | Heat shock protein, 60 kDa, mitochondrial: human brain protein (protein, UniProt P10809 27-573, looked up) 60 kDa heat shock protein, …: AKDVKFGADARALMLQGVDLLADAVAVTMGPKGRTVIIEQSWGSPKVTKDGVTVAKSIDLKDKYKNIGAKLVQDVANNTNEEAGDGTTTATVLARSIAKEGFEKISKGANPVEIRRGVMLAVDAVIAELKKQSKPVTTPEEIAQVATISANGDKEIGNIISDAMKKVGRKGVITVKDGKTLNDELEIIEGMKFDRGYISPYFINTSKGQKCEFQDAYVLLSEKKISSIQSIVPALEIANAHRKPLVIIAEDVDGEALSTLVLNRLKVGLQVVAVKAPGFGDNRKNQLKDMAIATGGAVFGEEGLTLNLEDVQPHDLGKVGEVIVTKDDAMLLKGKGDKAQIEKRIQEIIEQLDVTTSEYEKEKLNERLAKLSDGVAVLKVGGTSDVEVNEKKDRVTDALNATRAAVEEGIVLGGGCALLRCIPALDSLTPANEDQKIGIEIIKRTLKIPAMTIAKNAGVEGSLIVEKIMQSSSEVGYDAMAGDFVNMVEKGIIDPTKVVRTALLDAAGVASLLTTAEVVVTEIPKEEKDPGMGAMGGMGGGMGGGMF | 5.68
9 | 3-hydroxyisobutyryl-CoA hydrolase: human brain protein (protein, UniProt Q6NVY1 33-386, looked up) 3-hydroxyisobutyryl-CoA …: DAAEEVLLEKKGCTGVITLNRPKFLNALTLNMIRQIYPQLKKWEQDPETFLIIIKGAGGKAFCAGGDIRVISEAEKAKQKIAPVFFREEYMLNNAVGSCQKPYVALIHGITMGGGVGLSVHGQFRVATEKCLFAMPETAIGLFPDVGGGYFLPRLQGKLGYFLALTGFRLKGRDVYRAGIATHFVDSEKLAMLEEDLLALKSPSKENIASVLENYHTESKIDRDKSFILEEHMDKINSCFSANTVEEIIENLQQDGSSFALEQLKVINKMSPTSLKITLRQLMEGSSKTLQEVLTMEYRLSQACMRGHDFHEGVRAVLIDKDQSPKWKPADLKEVTEEDLNNHFKSLGSSDLKF | 5.27
10 | Quinone oxidoreductase: human brain protein (protein, UniProt Q08257 2-329, looked up) Quinone oxidoreductase: ATGQKLMRAVRVFEFGGPEVLKLRSDIAVPIPKDHQVLIKVHACGVNPVETYIRSGTYSRKPLLPYTPGSDVAGVIEAVGDNASAFKKGDRVFTSSTISGGYAEYALAADHTVYKLPEKLDFKQGAAIGIPYFTAYRALIHSACVKAGESVLVHGASGGVGLAACQIARAYGLKILGTAGTEEGQKIVLQNGAHEVFNHREVNYIDKIKKYVGEKGIDIIIEMLANVNLSKDLSLLSHGGRVIVVGSRGTIEINPRDTMAKESSIIGVTLFSSTKEEFQQYAAALQAGMEIGWLKPVIGSQYPLEKVAEAHENIIHGSGATGKMILLL | 5.18
11 | Tryptophanyl-tRNA synthetase, cytoplasmic: human brain protein (protein, UniProt P23381 2-471, looked up) Tryptophan--tRNA ligase, …: PNSEPASLLELFNSIATQGELVRSLKAGNASKDEIDSAVKMLVSLKMSYKAAAGEDYKADCPPGNPAPTSNHGPDATEAEEDFVDPWTVQTSSAKGIDYDKLIVRFGSSKIDKELINRIERATGQRPHHFLRRGIFFSHRDMNQVLDAYENKKPFYLYTGRGPSSEAMHVGHLIPFIFTKWLQDVFNVPLVIQMTDDEKYLWKDLTLDQAYSYAVENAKDIIACGFDINKTFIFSDLDYMGMSSGFYKNVVKIQKHVTFNQVKGIFGFTDSDCIGKISFPAIQAAPSFSNSFPQIFRDRTDIQCLIPCAIDQDPYFRMTRDVAPRIGYPKPALLHSTFFPALQGAQTKMSASDPNSSIFLTDTAKQIKTKVNKHAFSGGRDTIEEHRQFGGNCDVDVSFMYLTFFLEDDDKLEQIRKDYTSGAMLTGELKKALIEVLQPLIAEHQARRKEVTDEIVKEFMTPRKLSFDFQ | 5.17
12 | ATP synthase subunit alpha, mitochondrial: human brain protein (protein, UniProt P25705 44-553, looked up) ATP synthase F(1) complex …: QKTGTAEMSSILEERILGADTSVDLEETGRVLSIGDGIARVHGLRNVQAEEMVEFSSGLKGMSLNLEPDNVGVVVFGNDKLIKEGDIVKRTGAIVDVPVGEELLGRVVDALGNAIDGKGPIGSKTRRRVGLKAPGIIPRISVREPMQTGIKAVDSLVPIGRGQRELIIGDRQTGKTSIAIDTIINQKRFNDGSDEKKKLYCIYVAIGQKRSTVAQLVKRLTDADAMKYTIVVSATASDAAPLQYLAPYSGCSMGEYFRDNGKHALIIYDDLSKQAVAYRQMSLLLRRPPGREAYPGDVFYLHSRLLERAAKMNDAFGGGSLTALPVIETQAGDVSAYIPTNVISITDGQIFLETELFYKGIRPAINVGLSVSRVGSAAQTRAMKQVAGTMKLELAQYREVAAFAQFGSDLDAATQQLLSRGVRLTELLKQGQYSPMAIEEQVAVIYAGVRGYLDKLEPSKITKFENAFLSHVVSQHQALLGTIRADGKISEQSDAKLKEIVTNFLAGFEA | 5.17
13 | Endophilin-A1: human brain protein (protein, UniProt Q99962 1-352, looked up) Endophilin-A1: MSVAGLKKQFHKATQKVSEKVGGAEGTKLDDDFKEMERKVDVTSRAVMEIMTKTIEYLQPNPASRAKLSMINTMSKIRGQEKGPGYPQAEALLAEAMLKFGRELGDDCNFGPALGEVGEAMRELSEVKDSLDIEVKQNFIDPLQNLHDKDLREIQHHLKKLEGRRLDFDYKKKRQGKIPDEELRQALEKFDESKEIAESSMFNLLEMDIEQVSQLSALVQAQLEYHKQAVQILQQVTVRLEERIRQASSQPRREYQPKPRMSLEFPTGDSTQPNGGLSHTGTPKPSGVQMDQPCCRALYDFEPENEGELGFKEGDIITLTNQIDENWYEGMLHGHSGFFPINYVEILVALPH | 5.03

Reference: paper PMC5505701, “Somatostatin binds to the human amyloid β peptide and favors the formation of distinct oligomers” (eLife, 2017)
